Key:
[1] = target: T1, 人CD137全长 (SEQ ID No.19)，表达于细胞 (human, UniProt Q07011 24-255); experiment: flow cytometry (FACS) on CHO-K1/hCD137 cells, goat anti-human FITC; antibody at 0.342935528 nM
T1 construct: The full-length entry was transfected into CHO-K1 cells for FACS and into HEK293 cells for the reporter assay; also called CHO-K1/hCD137; 细胞表面人CD137

[2] = target: T1, 人CD137全长 (SEQ ID No.19)，表达于细胞; experiment: flow cytometry (FACS) on CHO-K1/hCD137 cells, goat anti-human FITC; antibody at 1.028806584 nM
[3] = target: T1, 人CD137全长 (SEQ ID No.19)，表达于细胞; experiment: flow cytometry (FACS) on CHO-K1/hCD137 cells, goat anti-human FITC; antibody at 83.33333333 nM
[4] = target: T2, 人PD-L1胞外段 (SEQ ID No.22 第19-238位) (human, UniProt Q9NZQ7 fragment); experiment: ELISA, human PD-L1 extracellular domain coated, goat anti-human HRP
T2 construct: also called 人PD-L1抗原

[5] = target: T1, 人CD137全长 (SEQ ID No.19)，表达于细胞; experiment: flow cytometry (FACS) on CHO-K1/hCD137 cells, goat anti-human FITC; antibody at 9.259259259 nM
[6] = target: T3, 人PD-L1全长 (SEQ ID No.22)，表达于CHO-K1细胞 (human, UniProt Q9NZQ7); experiment: flow cytometry (FACS) on CHO-K1/hPD-L1 cells, goat anti-human FITC
T3 construct: The full-length entry was transfected; also called CHO-K1/hPD-L1; 细胞表面人PD-L1

[7] = target: T1, 人CD137全长 (SEQ ID No.19)，表达于细胞; experiment: flow cytometry (FACS) on CHO-K1/hCD137 cells, goat anti-human FITC; 4-parameter logistic fit
[8] = target: T1, 人CD137全长 (SEQ ID No.19)，表达于细胞; experiment: flow cytometry (FACS) on CHO-K1/hCD137 cells, goat anti-human FITC; antibody at 250 nM
[9] = target: T4, 人PD-L1胞外段 (SEQ ID No.22 第19-238位)，带His标签 (human, UniProt Q9NZQ7 fragment); experiment: bridging ELISA: human PD-L1-His coated, bispecific antibody, then human CD137-mouse Fc, goat anti-mouse HRP
T4 construct: It may be the same preparation as m7; not shown: His tag

[10] = target: T1, 人CD137全长 (SEQ ID No.19)，表达于细胞; experiment: flow cytometry (FACS) on CHO-K1/hCD137 cells, goat anti-human FITC; antibody at 27.77777778 nM
[11] = target: T1, 人CD137全长 (SEQ ID No.19)，表达于细胞; experiment: flow cytometry (FACS) on CHO-K1/hCD137 cells, goat anti-human FITC; antibody at 3.086419753 nM

T1 sequence (Q07011 24-255 limits assumed): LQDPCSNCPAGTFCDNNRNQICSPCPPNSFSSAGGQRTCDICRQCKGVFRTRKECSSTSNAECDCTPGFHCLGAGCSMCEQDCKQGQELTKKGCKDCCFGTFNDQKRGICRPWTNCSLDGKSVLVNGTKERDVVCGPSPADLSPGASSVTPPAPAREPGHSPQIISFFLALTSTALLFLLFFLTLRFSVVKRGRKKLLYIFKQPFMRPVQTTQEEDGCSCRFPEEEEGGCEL

B1: 抗人PD-L1/CD137双特异性抗体 结构A (1st scFv-L1-Fc-L2-2nd scFv) (bispecific antibody, human IgG4 S228P, F234A L235A)
chain: DIQMTQSPSSLSASLGDRVTISCSASQGISNYLNWYQQKPDGTVKLLIYYTSTLHSGVPSRFSGSGSGTDYTLTISSLQPEDIATYYCQQYSKLPWTFGCGTKLEIKGGGGSGGGGSGGGGSGGGGSQVQLQESGPGLVKPSETLSLTCTVSGSSLTSYGVHWVRQPPGKCLEGLGVIWPGGSTNYNSALMSRVTISKDNSKSQVSLKMSSLTAADTAVYYCARVTGTWYFDVWGQGTTVTVSSGGGGSGGGGS[human IgG4 Fc with S228P F234A L235A (EU numbers) not shown]GGGSGGGGSGGGGSDIQMTQSPSTLSASVGDRVTITCQSSQNVYSNNRLSWYQQKPGKAPKLLIYWTSFLASGVPSRFSGSGSGTEFTLTISSLQPDDFATYYCAGGYSGNLYTFGCGTKLEIKGGGGSGGGGSGGGGSGGGGSDVQLVESGGGLVQPGGSLRLSCTVSGIDLSSYDMTWVRQAPGKCLEYIGYISYVSRTYYADSVKGRFTISKDTSKNTVYLQMNSLRAEDTAVYYCARDRPDGAATNLWGQGTLVTVSS
notes: Two identical chains: anti-CD137 scFv, (G4S)2, human IgG4 Fc, (G4S)3, anti-PD-L1 scFv; Expressed in Expi293 cells; also called A结构
[1]
  FACS signal (read-out name not given): 2660
[2]
  FACS signal (read-out name not given): 2960
[3]
  FACS signal (read-out name not given): 14000
[4]
  binding result: binds
[5]
  FACS signal (read-out name not given): 6790
[6]
  binding result: binds
[7]
  EC50: 14.6 nM
[8]
  FACS signal (read-out name not given): 14200
[9]
  binding result: binds
[10]
  FACS signal (read-out name not given): 11100
[11]
  FACS signal (read-out name not given): 3720

From patent CN115677858A (HEFEI HANKEMAB BIOTECHNOLOGY CO LTD; ANHUI ANKE …, dated 2023)
